Columns and labels:
[1] = target: Phosphatidylinositol 4,5-bisphosphate 3-kinase catalytic subunit alpha isoform (Homo sapiens, UniProt P42336, I800L); test: Inhibition of human PIK3CA I800L mutant by discoverX kinome scan assay
[2] = target: Serine/threonine-protein kinase pim-2 (Homo sapiens, UniProt Q9P1W9); test: Inhibition of human PIM2 by discoverX kinome scan assay
KYSE-150 cell line [3] = test: Effect on cellular post-translational modifications on histone H3 (KSTGGKAPR) - K9 dimethylated, K14 acetylated in human KYSE-150 cells assessed as relative abundance at 5 by mass spectrometric analysis (reference value: 16.6+/-0.9); type: functional; details: dose 5 µM
[4] = Inhibition of bacterial PKNB by discoverX kinome scan assay; parameters: species or system Bacteria
[5] = target: Mitogen-activated protein kinase 12 (Homo sapiens, UniProt P53778); test: Inhibition of human p38-gamma by discoverX kinome scan assay
[6] = target: Serine/threonine-protein kinase mTOR (Homo sapiens, UniProt P42345); test: Inhibition of human MTOR by discoverX kinome scan assay
[7] = Inhibition of human CSF1R-autoinhib by discoverX kinome scan assay
[8] = target: cAMP-dependent protein kinase catalytic subunit PRKX (Homo sapiens, UniProt P51817); test: Inhibition of PRKX (unknown origin) by discoverX kinome scan assay
[9] = target: Phosphatidylinositol 5-phosphate 4-kinase type-2 beta (Homo sapiens, UniProt P78356); test: Inhibition of human PIP5K2B by discoverX kinome scan assay
[10] = target: Serine/threonine-protein kinase 3 (Homo sapiens, UniProt Q13188); test: Inhibition of human MST2 by discoverX kinome scan assay
UACC-812 = test: Antiproliferative activity against human UACC-812 cells measured after 7 day by celltitre-glo luminescent assay; type: functional, cell-based; details: UACC-812, 168 h
KYSE-150 cell line [11] = test: Effect on cellular post-translational modifications on histone H3 (TKQTAR) - K4 mono-methylated in human KYSE-150 cells assessed as relative abundance at 5 by mass spectrometric analysis (reference value: 10.5+/-0.3); type: functional; details: dose 5 µM
Outline: (§1)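 Histones acid-extracted from SMYD2-overexpressing KYSE-150 cells treated with vehicle or 5 μM inhibitor. Samples derivatized with propionic anhydride, then trypsin-digested for 6 h at 37 °C. Each modification's relative abundance on a peptide sequence, as a percentage, was quantified from MS and MS/MS spectra and compared with vehicle.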

[12] = target: Dual specificity tyrosine-phosphorylation-regulated kinase 1B (Homo sapiens, UniProt Q9Y463); test: Inhibition of human DYRK1B by discoverX kinome scan assay
[13] = target: Serine/threonine-protein kinase D2 (Homo sapiens, UniProt Q9BZL6); test: Inhibition of PRKD2 (unknown origin) by discoverX kinome scan assay
KYSE-150 cell line [14] = test: Effect on cellular post-translational modifications on histone H4 (KVLR) - K20 trimethylated in human KYSE-150 cells assessed as fold difference by mass spectrometry relative to vehicle treated control; type: functional; outline: as §1
[15] = Inhibition of human EGFR S752/I759 double mutant by discoverX kinome scan assay
KYSE-150 cell line [16] = test: Effect on cellular post-translational modifications on histone H3 (GKGGKGLGKGGAKR) - K5 unmethylated, K8 unmethylated, K12 acetylated, K16 unmethylated in human KYSE-150 cells assessed as fold change by mass spectrometric analysis; type: functional
[17] = target: Serine/threonine-protein kinase PAK 1 (Homo sapiens, UniProt Q13153); test: Inhibition of human PAK1 by discoverX kinome scan assay
[18] = target: Cyclin-dependent kinase 15 (Homo sapiens, UniProt Q96Q40); test: Inhibition of human PFTAIRE2 by discoverX kinome scan assay
[19] = target: Serine/threonine-protein kinase 4 (Homo sapiens, UniProt Q13043); test: Inhibition of human MST1 by discoverX kinome scan assay
KYSE-150 cell line [20] = test: Effect on cellular post-translational modifications on histone H3 (EIAQDFKTDLR) - K79 monomethylated in human KYSE-150 cells assessed as relative abundance at 5 by mass spectrometric analysis (reference value: 16.2+/-3.3); type: functional; details: dose 5 µM
[21] = target: Serine/threonine-protein kinase NIM1 (Homo sapiens, UniProt Q8IY84); test: Inhibition of human NIM1 by discoverX kinome scan assay
[22] = target: Serine/threonine-protein kinase PAK 4 (Homo sapiens, UniProt O96013); test: Inhibition of human PAK4 by discoverX kinome scan assay
[23] = target: Serine/threonine-protein kinase PAK 3 (Homo sapiens, UniProt O75914); test: Inhibition of human PAK3 by discoverX kinome scan assay
[24] = Inhibition of human ABL1 pF317I mutant by discoverX kinome scan assay
[25] = target: Serine/threonine-protein kinase MRCK alpha (Homo sapiens, UniProt Q5VT25); test: Inhibition of human MRCKA by discoverX kinome scan assay
[26] = target: Myosin light chain kinase, smooth muscle (Homo sapiens, UniProt Q15746); test: Inhibition of human MYLK by discoverX kinome scan assay
[27] = Inhibition of human ABL1-p by discoverX kinome scan assay
[28] = target: Mitogen-activated protein kinase kinase kinase 9 (Homo sapiens, UniProt P80192); test: Inhibition of human MLK1 by discoverX kinome scan assay
KYSE-150 cell line [29] = test: Effect on cellular post-translational modifications on histone H3 (KSTGGKAPR) - K9 trimethylated, K14 acetylated in human KYSE-150 cells assessed as relative abundance at 5 by mass spectrometric analysis (reference value: 7+/-0.2); type: functional; details: dose 5 µM; outline: as §1
[30] = target: Calcium-dependent protein kinase 1 (Plasmodium falciparum, UniProt P62344); test: Inhibition of Plasmodium falciparum CDPK1 by discoverX kinome scan assay
[31] = target: Serine/threonine-protein kinase Nek3 (Homo sapiens, UniProt P51956); test: Inhibition of human NEK3 by discoverX kinome scan assay
[32] = target: Phosphatidylinositol 4,5-bisphosphate 3-kinase catalytic subunit alpha isoform (Homo sapiens, UniProt P42336, E545K); test: Inhibition of human PIK3CA E545K mutant by discoverX kinome scan assay
KYSE-150 cell line [33] = test: Effect on cellular post-translational modifications on histone H3 (TKQTAR) - K4 di-methylated in human KYSE-150 cells assessed as fold change by mass spectrometric analysis; type: functional; outline: as §1
[34] = target: Serine/threonine-protein kinase Nek10 (Homo sapiens, UniProt Q6ZWH5); test: Inhibition of human NEK10 by discoverX kinome scan assay
[35] = target: Macrophage-stimulating protein receptor (Homo sapiens, UniProt Q04912); test: Inhibition of human MST1R by discoverX kinome scan assay
KYSE-150 cell line [36] = test: Effect on cellular post-translational modifications on histone H4 (KVLR) - K20 dimethylated in human KYSE-150 cells assessed as relative abundance at 5 by mass spectrometric analysis (reference value: 61.8+/-8.8); type: functional; details: dose 5 µM; outline: as §1
[37] = target: Interferon-induced, double-stranded RNA-activated protein kinase (Homo sapiens, UniProt P19525); test: Inhibition of PRKR (unknown origin) by discoverX kinome scan assay
[38] = target: Serine/threonine-protein kinase 38 (Homo sapiens, UniProt Q15208); test: Inhibition of human NDR1 by discoverX kinome scan assay

Sequence of UniProt Q9Y463 (Q9Y463 whole entry): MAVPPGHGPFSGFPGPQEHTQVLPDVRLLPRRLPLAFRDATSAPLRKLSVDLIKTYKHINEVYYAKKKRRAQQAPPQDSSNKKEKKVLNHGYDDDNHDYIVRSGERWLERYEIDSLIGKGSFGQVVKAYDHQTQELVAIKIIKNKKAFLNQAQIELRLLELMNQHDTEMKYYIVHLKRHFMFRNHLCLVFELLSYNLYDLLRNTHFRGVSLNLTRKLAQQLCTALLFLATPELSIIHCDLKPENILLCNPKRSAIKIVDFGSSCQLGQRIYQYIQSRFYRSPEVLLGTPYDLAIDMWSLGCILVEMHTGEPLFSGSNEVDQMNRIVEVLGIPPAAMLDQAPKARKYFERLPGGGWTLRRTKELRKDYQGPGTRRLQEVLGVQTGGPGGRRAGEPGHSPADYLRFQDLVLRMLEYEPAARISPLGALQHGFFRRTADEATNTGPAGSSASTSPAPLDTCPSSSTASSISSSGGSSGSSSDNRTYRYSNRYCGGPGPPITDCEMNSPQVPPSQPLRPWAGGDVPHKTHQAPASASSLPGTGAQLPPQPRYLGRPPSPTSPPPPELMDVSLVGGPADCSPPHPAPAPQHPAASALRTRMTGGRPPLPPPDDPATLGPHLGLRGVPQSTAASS
Sequence of UniProt P51817 (P51817 whole entry): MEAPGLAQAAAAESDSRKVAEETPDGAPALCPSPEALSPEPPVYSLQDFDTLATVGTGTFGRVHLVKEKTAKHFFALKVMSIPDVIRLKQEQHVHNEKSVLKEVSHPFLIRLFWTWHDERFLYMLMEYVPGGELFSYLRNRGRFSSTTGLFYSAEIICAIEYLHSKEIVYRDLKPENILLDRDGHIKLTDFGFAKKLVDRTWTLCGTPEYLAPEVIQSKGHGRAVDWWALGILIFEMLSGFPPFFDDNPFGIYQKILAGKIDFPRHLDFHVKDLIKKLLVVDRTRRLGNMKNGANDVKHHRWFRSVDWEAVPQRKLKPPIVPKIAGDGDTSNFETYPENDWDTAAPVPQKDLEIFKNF
Sequence of UniProt O96013 (O96013 whole entry): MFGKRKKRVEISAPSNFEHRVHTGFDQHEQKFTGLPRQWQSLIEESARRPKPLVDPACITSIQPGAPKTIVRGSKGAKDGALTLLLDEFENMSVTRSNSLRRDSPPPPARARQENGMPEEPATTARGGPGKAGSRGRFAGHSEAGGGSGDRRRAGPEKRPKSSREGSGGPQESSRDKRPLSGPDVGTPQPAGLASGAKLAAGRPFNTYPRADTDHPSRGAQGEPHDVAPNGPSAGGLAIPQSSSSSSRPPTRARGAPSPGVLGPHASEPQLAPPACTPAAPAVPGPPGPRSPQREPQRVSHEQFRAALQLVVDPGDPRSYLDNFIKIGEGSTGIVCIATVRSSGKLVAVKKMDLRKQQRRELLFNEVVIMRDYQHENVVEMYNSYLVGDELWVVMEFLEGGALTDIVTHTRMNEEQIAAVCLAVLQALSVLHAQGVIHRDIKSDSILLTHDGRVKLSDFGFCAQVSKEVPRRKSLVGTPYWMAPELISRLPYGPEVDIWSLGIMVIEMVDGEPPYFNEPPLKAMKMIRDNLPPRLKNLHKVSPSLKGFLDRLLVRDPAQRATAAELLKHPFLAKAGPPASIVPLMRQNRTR
Sequence of UniProt Q9P1W9 (Q9P1W9 whole entry): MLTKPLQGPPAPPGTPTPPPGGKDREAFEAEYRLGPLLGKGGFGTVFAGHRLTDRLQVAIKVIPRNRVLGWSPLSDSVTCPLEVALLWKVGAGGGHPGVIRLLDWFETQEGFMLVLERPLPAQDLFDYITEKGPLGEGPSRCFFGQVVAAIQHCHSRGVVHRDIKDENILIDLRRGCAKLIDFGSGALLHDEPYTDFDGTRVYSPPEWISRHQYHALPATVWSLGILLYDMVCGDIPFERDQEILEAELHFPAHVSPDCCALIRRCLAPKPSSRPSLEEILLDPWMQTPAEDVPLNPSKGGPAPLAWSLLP
Sequence of UniProt Q96Q40 (Q96Q40 whole entry): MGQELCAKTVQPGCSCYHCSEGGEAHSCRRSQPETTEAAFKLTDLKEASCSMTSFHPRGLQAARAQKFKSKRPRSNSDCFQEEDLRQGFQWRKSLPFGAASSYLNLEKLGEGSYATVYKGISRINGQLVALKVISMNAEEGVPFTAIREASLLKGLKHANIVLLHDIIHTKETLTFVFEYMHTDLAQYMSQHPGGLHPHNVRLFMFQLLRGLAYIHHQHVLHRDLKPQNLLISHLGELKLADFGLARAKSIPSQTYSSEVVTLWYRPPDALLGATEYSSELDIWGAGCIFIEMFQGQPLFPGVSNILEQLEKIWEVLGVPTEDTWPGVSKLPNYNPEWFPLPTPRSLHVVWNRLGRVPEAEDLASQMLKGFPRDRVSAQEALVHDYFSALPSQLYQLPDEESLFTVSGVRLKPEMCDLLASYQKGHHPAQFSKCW
Sequence of UniProt Q13043 (Q13043 whole entry): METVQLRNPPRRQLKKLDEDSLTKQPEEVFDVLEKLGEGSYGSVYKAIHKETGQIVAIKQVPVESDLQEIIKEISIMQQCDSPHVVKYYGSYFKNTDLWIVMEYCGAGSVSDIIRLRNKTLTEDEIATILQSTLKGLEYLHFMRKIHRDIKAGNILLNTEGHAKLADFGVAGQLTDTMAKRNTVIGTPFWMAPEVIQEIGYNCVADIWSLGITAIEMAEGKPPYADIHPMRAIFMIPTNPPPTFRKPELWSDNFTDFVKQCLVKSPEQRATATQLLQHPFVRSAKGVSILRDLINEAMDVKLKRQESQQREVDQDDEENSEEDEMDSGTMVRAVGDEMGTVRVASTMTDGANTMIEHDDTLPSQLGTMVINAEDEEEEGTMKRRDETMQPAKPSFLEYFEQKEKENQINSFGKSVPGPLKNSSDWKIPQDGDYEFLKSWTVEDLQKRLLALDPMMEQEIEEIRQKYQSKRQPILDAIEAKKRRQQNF
Sequence of UniProt P53778 (P53778 whole entry): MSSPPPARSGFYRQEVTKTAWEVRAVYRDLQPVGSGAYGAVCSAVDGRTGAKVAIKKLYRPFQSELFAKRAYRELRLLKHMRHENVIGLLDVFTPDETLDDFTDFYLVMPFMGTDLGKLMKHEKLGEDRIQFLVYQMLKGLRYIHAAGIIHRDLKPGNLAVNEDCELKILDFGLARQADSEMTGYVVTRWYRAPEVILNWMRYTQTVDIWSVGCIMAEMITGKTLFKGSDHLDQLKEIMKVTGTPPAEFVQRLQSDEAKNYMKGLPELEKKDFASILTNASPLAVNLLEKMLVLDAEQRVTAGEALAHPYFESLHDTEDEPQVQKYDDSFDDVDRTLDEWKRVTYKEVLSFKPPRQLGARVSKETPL
Sequence of UniProt P51956 (P51956 whole entry, canonical isoform): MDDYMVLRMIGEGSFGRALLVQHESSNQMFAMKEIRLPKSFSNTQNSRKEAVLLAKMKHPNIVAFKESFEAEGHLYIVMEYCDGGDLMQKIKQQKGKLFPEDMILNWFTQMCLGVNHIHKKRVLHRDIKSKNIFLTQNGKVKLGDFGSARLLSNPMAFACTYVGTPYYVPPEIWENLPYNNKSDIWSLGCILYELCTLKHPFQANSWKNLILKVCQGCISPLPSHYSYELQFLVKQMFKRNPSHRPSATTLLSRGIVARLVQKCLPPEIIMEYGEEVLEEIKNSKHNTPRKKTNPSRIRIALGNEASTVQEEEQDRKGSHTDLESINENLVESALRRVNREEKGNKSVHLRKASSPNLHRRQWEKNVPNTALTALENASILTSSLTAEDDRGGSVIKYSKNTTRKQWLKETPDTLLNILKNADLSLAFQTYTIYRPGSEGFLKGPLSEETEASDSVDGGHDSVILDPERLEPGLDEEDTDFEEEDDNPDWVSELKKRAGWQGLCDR
Sequence of UniProt Q13188 (Q13188 whole entry): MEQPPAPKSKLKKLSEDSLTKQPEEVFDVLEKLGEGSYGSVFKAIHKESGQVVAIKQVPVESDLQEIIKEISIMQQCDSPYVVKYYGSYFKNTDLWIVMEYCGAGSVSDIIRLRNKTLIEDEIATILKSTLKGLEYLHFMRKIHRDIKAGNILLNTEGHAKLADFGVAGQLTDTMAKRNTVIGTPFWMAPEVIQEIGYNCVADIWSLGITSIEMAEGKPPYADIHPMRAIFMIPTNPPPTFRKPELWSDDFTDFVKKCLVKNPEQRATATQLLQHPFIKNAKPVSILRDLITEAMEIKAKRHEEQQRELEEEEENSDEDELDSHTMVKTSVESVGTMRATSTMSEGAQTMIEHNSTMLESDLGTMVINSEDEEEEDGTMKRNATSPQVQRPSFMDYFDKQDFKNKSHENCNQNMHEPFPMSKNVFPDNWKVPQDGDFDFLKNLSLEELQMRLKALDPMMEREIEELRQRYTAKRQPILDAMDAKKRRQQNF
Sequence of UniProt P19525 (P19525 whole entry): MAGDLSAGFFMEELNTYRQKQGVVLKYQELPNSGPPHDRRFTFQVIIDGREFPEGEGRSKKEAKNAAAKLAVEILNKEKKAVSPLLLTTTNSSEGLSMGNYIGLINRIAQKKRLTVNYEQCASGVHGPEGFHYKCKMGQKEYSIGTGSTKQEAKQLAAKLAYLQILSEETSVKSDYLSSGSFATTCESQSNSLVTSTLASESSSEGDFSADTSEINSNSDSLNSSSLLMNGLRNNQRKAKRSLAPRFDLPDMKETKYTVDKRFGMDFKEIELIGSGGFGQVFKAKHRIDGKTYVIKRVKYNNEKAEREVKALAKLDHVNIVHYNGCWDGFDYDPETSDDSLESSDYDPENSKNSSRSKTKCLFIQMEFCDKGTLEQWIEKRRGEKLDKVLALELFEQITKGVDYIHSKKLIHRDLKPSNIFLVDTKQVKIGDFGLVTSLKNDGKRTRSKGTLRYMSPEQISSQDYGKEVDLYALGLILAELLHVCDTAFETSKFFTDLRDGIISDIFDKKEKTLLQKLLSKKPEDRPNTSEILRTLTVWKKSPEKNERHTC

Cc1cn(CCN2CCN(c3ccccc3-c3cc(C#N)cc(C(=O)NCCCN4CCCC4)c3)CC2)c2ccccc12
1.11: fold change (FC) (KYSE-150 cell line [16])
15.3: Activity (KYSE-150 cell line [3])
17.1: Activity (KYSE-150 cell line [20])
13: Activity (KYSE-150 cell line [11])
1.2: fold change (FC) (KYSE-150 cell line [33])
14.5 µM: IC50 [12]
7.5 µM: IC50 [7]
58: Activity (KYSE-150 cell line [36])
6.3: Activity (KYSE-150 cell line [29])
0.3 µM: IC50 (UACC-812)
> 20 µM: IC50 [1] | IC50 [2] | IC50 [4] | IC50 [5] | IC50 [6] | IC50 [8] | IC50 [9] | IC50 [10] | IC50 [13] | IC50 [15] | IC50 [17] | IC50 [18] | IC50 [19] | IC50 [21] | IC50 [22] | IC50 [23] | IC50 [24] | IC50 [25] | IC50 [26] | IC50 [27] | IC50 [28] | IC50 [30] | IC50 [31] | IC50 [32] | IC50 [34] | IC50 [35] | IC50 [37] | IC50 [38]
0.97: fold change (FC) (KYSE-150 cell line [14])

Reference: ChEMBL document CHEMBL5674866 (J Biol Chem, 2015)
